Values marked as one replicate rest on one cluster of the flow cell; about a third of the high ones do not repeat.
Test system: ATP
Test: switch fluorescence ratio, 500 uM ATP over buffer (Cy3 cluster intensity, sum of 5 cycles each) (fold (ratio)); higher = stronger signal-on switching upon ATP binding; sequences stand for … in TCGTCGGCAGCGTCAGATGTGTATAAGAGACAGTTTTTTTTTTTTTTTTTTTTTTTTT…TC
Details: aptamer strand: ATP DNA aptamer (quencher-CACCTGGGGGAGTATTGCGGAGGAAGG + anchor), 100 nM annealed; ATP concentration: 500 uM; one replicate
Method in brief: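 Cy3-labelled switching-strand clusters on a modified Illumina MiSeq flow-cell were annealed to 100 nM quencher-labelled ATP aptamer and imaged first in selection buffer, then after 15 min with 500 uM ATP at 22 °C. NaOH stripping and re-annealing separated each of five buffer/ATP cycles, and clusters outside 100-1000 RFU were excluded. The fluorescence ratio sums target-cycle Cy3 intensity over buffer-cycle Cy3 intensity per cluster and averages it per switch-domain sequence.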
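Further: ATP exposure 15 min at 22 °C before imaging.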

Sequence: CAGAGAGAGA
- switch fluorescence ratio: 1.03

Sequence: CGGAA
- switch fluorescence ratio: 1.1

Sequence: GGCGCCTCGC
- switch fluorescence ratio: 0.986

Sequence: AAACATTTTT
- switch fluorescence ratio: 1.01

Sequence: GCCGGTTGCC
- switch fluorescence ratio: 1.04

Sequence: ATAGGTACAA
- switch fluorescence ratio: 1.03

Sequence: TGCTTACAT
- switch fluorescence ratio: 0.965

Sequence: GATGTCGCGA
- switch fluorescence ratio: 1.04

Sequence: TGCTTATGAC
- switch fluorescence ratio: 1.04

Sequence: TAGGCGTAG
- switch fluorescence ratio: 1.03

Sequence: GCTGATAGGC
- switch fluorescence ratio: 1.01

Sequence: CAGCTGATCG
- switch fluorescence ratio: 1.01

Sequence: GTGGTACCGA
- switch fluorescence ratio: 1.01

Sequence: CATAAGTACT
- switch fluorescence ratio: 1.22

Sequence: AACGCTAT
- switch fluorescence ratio: 1.28

Sequence: GAATAAATGG
- switch fluorescence ratio: 0.98

Sequence: CTTCGTTGAA
- switch fluorescence ratio: 1

Sequence: TACGTATATC
- switch fluorescence ratio: 2.07

Sequence: CAATAGGTAA
- switch fluorescence ratio: 0.975

Sequence: CTTGGCACAG
- switch fluorescence ratio: 0.972

Sequence: AGCCAGAGTG
- switch fluorescence ratio: 1.45

Sequence: TCGCCTAGCT
- switch fluorescence ratio: 0.961

Sequence: CCGATCCCTT
- switch fluorescence ratio: 1.03

Sequence: GAATGCCGAT
- switch fluorescence ratio: 0.996

Sequence: GTCGTGCATT
- switch fluorescence ratio: 0.984

Sequence: AAAGGCGTTT
- switch fluorescence ratio: 0.978

Sequence: TATGTGGTCC
- switch fluorescence ratio: 1.06

Sequence: ATCGCATACC
- switch fluorescence ratio: 2.65

Sequence: TTGTCCTGGA
- switch fluorescence ratio: 1.04

Sequence: CGAGCCGCTA
- switch fluorescence ratio: 1.09

Sequence: AATCTTTGTA
- switch fluorescence ratio: 0.993

Sequence: CTGTTGTAGC
- switch fluorescence ratio: 0.98

Sequence: GATTCATTAA
- switch fluorescence ratio: 0.948

Sequence: CCCGTGGCAC
- switch fluorescence ratio: 1.22

Sequence: GTCGACCATC
- switch fluorescence ratio: 0.982

Sequence: AGATACGGGG
- switch fluorescence ratio: 1.01

Sequence: CGTTCGTCTA
- switch fluorescence ratio: 1.07

Sequence: TGTTTAGCGA
- switch fluorescence ratio: 1.02

Sequence: AATCGGACAA
- switch fluorescence ratio: 1.05

Sequence: CTTGTTTTGG
- switch fluorescence ratio: 0.986

Sequence: TTGCGGGCGC
- switch fluorescence ratio: 0.999

Sequence: TTCTGAACTG
- switch fluorescence ratio: 0.991

Sequence: CTTTGGATA
- switch fluorescence ratio: 1.01

Sequence: GTCGTAGACG
- switch fluorescence ratio: 1.04

Sequence: TTCCCCTAGC
- switch fluorescence ratio: 1.05

Sequence: GGAATTAATA
- switch fluorescence ratio: 1

Sequence: GTGTTTGCAC
- switch fluorescence ratio: 0.99

Sequence: GCTACATACA
- switch fluorescence ratio: 1.4

Sequence: GGAGTACCAT
- switch fluorescence ratio: 0.983

Sequence: TCACCCACTG
- switch fluorescence ratio: 1.34

Sequence: ATGCGGATGT
- switch fluorescence ratio: 1.01

Sequence: TCAAAGTCTT
- switch fluorescence ratio: 0.991

Sequence: CAGTATATGA
- switch fluorescence ratio: 0.992

Sequence: GATCGCGTCT
- switch fluorescence ratio: 1.01

Sequence: AGAATTTCCT
- switch fluorescence ratio: 0.954

Sequence: TGGATGACGT
- switch fluorescence ratio: 1.02

Sequence: AGGGGCATAA
- switch fluorescence ratio: 1.01

Sequence: GTCATCTAGT
- switch fluorescence ratio: 0.977

Sequence: GAGGTGTTG
- switch fluorescence ratio: 0.977

Sequence: CGGAGGATCT
- switch fluorescence ratio: 1.01

Sequence: TGGCTGACGA
- switch fluorescence ratio: 1.05

Sequence: CGTTGAATCC
- switch fluorescence ratio: 1.03

Sequence: GTGAAGAGAC
- switch fluorescence ratio: 0.982

Sequence: CGGACAGTTT
- switch fluorescence ratio: 1.05

Sequence: ACAAGAATA
- switch fluorescence ratio: 1.03

Sequence: ACTGGTGAGG
- switch fluorescence ratio: 1.02

Sequence: GCTTTGGAGC
- switch fluorescence ratio: 0.998

Sequence: CCCCCAGGGA
- switch fluorescence ratio: 2.32

Sequence: CAATGAGGTT
- switch fluorescence ratio: 1.01

Sequence: CGAACCGCAC
- switch fluorescence ratio: 2.67

Sequence: CGTACGGATT
- switch fluorescence ratio: 0.975

Sequence: CTTAGGTCAA
- switch fluorescence ratio: 0.976

Sequence: TTATCCATCG
- switch fluorescence ratio: 0.999

Sequence: CCGCTGATCA
- switch fluorescence ratio: 1.45

Sequence: ACCGGACACG
- switch fluorescence ratio: 1.05

Sequence: AGGCCGAGT
- switch fluorescence ratio: 0.998

Sequence: TTGGATCACA
- switch fluorescence ratio: 0.976

Sequence: CTTCATCGTT
- switch fluorescence ratio: 1.01

Sequence: GTATGCTTTA
- switch fluorescence ratio: 0.949

Sequence: GGCATCATGG
- switch fluorescence ratio: 0.971

Sequence: GTTTCTTCCA
- switch fluorescence ratio: 1.02

Sequence: TTCCACGTTA
- switch fluorescence ratio: 1.22

Sequence: GTAAGTTAAT
- switch fluorescence ratio: 1.01

Sequence: GTGACTCGA
- switch fluorescence ratio: 0.961

Sequence: CATCGGTATG
- switch fluorescence ratio: 1

Sequence: TATGTCCCCC
- switch fluorescence ratio: 1.06

Sequence: AGGGCAGTGA
- switch fluorescence ratio: 1.06

Sequence: CTGAGTGGCC
- switch fluorescence ratio: 0.995

Sequence: TTTATTGATT
- switch fluorescence ratio: 1.01

Sequence: TTAGTGGACG
- switch fluorescence ratio: 0.938

Sequence: CAGATTCGGT
- switch fluorescence ratio: 0.993

Sequence: ACCCGCGGG
- switch fluorescence ratio: 0.996

Sequence: ACTTATATGC
- switch fluorescence ratio: 0.991

Sequence: TCGGGAGGGA
- switch fluorescence ratio: 0.996

Sequence: ATTGTCACTA
- switch fluorescence ratio: 0.968

Sequence: CGGCACAGAG
- switch fluorescence ratio: 1.05

Sequence: GAGGGGCGGC
- switch fluorescence ratio: 1.03

Sequence: TAGTGTGAGT
- switch fluorescence ratio: 0.999

Sequence: CGGTTTAGC
- switch fluorescence ratio: 1.04

Sequence: TCGAAACATT
- switch fluorescence ratio: 1.01

Sequence: AATCCCGTAT
- switch fluorescence ratio: 0.981

Sequence: CGTCGTATT
- switch fluorescence ratio: 0.958

Sequence: GGGCGACATA
- switch fluorescence ratio: 1.06

Sequence: ATTTTTCCTT
- switch fluorescence ratio: 1.01

Sequence: CAACAGTAGG
- switch fluorescence ratio: 0.995

Sequence: CTGACTAAG
- switch fluorescence ratio: 1.02

Sequence: ATGAGGCGG
- switch fluorescence ratio: 0.999

Sequence: TGCTTGGGCG
- switch fluorescence ratio: 0.989

Sequence: TGGATCTGG
- switch fluorescence ratio: 1.02

Sequence: CATATGTGAA
- switch fluorescence ratio: 0.985

Sequence: GAATGACT
- switch fluorescence ratio: 1

Sequence: TGAATTCGTC
- switch fluorescence ratio: 0.968

Sequence: TATATTAGAT
- switch fluorescence ratio: 1.01

Sequence: CAAGTATTAT
- switch fluorescence ratio: 0.987

Sequence: AGGTTTACCG
- switch fluorescence ratio: 0.924

Sequence: CAGGTTATAA
- switch fluorescence ratio: 0.987

Sequence: TCTCGTGGGG
- switch fluorescence ratio: 0.995

Sequence: CATAAAATAA
- switch fluorescence ratio: 0.932

Sequence: AAGAATGTGC
- switch fluorescence ratio: 1.02

Sequence: TGGTTCAATA
- switch fluorescence ratio: 1.03

Sequence: CGTAAGACCG
- switch fluorescence ratio: 1.05

Sequence: TCGGGGCGGT
- switch fluorescence ratio: 1.01

Sequence: ACGCCAGGAG
- switch fluorescence ratio: 1.24

Sequence: CAATACATTA
- switch fluorescence ratio: 1.08

Sequence: GATGGTGCGT
- switch fluorescence ratio: 1.03

Sequence: GATGGCTCCG
- switch fluorescence ratio: 1.01

Sequence: CTGCTGAATA
- switch fluorescence ratio: 0.998

Sequence: AAGTGGGTCA
- switch fluorescence ratio: 1.03

Sequence: TATACAGGTT
- switch fluorescence ratio: 0.998

Sequence: ATTGCAGGTG
- switch fluorescence ratio: 2.75

Sequence: AGGAGGTTGA
- switch fluorescence ratio: 0.954

Sequence: AAGCCGAACC
- switch fluorescence ratio: 1.46

Sequence: CAAGTCGACG
- switch fluorescence ratio: 0.978

Sequence: GAGGGTGGCG
- switch fluorescence ratio: 1

Sequence: CGGGGCAATT
- switch fluorescence ratio: 1.49

Sequence: CGATTAGAAG
- switch fluorescence ratio: 0.968

Sequence: GTTACGACCG
- switch fluorescence ratio: 1.2

Sequence: GCGACCAATC
- switch fluorescence ratio: 2.63

Sequence: CGCTATGAAA
- switch fluorescence ratio: 0.937

Sequence: CAATCTTTCA
- switch fluorescence ratio: 1.04

Sequence: AGGTAGTCCT
- switch fluorescence ratio: 0.956

Sequence: TTCGGTATCA
- switch fluorescence ratio: 0.943

Sequence: TTCGAAATTC
- switch fluorescence ratio: 1

Sequence: CCTTTCCGTT
- switch fluorescence ratio: 1.23

Sequence: TGATGTCCCA
- switch fluorescence ratio: 1.01

Sequence: GCTTATTTTC
- switch fluorescence ratio: 0.971

Sequence: CATGTTGAG
- switch fluorescence ratio: 1.01

Sequence: CTTCCCCAAC
- switch fluorescence ratio: 1.93

Sequence: GATTGACATC
- switch fluorescence ratio: 1.06

Sequence: GGGAGTGG
- switch fluorescence ratio: 0.965

Sequence: TATTTACTGC
- switch fluorescence ratio: 0.993

Sequence: AGCTAGTCCG
- switch fluorescence ratio: 0.975

Sequence: AACCCGGTGG
- switch fluorescence ratio: 1.05

Sequence: TGGTAGCTCG
- switch fluorescence ratio: 0.938

Sequence: GTTTTAGCTC
- switch fluorescence ratio: 0.944

Sequence: TTAAGCACTA
- switch fluorescence ratio: 1.24

Sequence: TGCGTAGTAA
- switch fluorescence ratio: 1.09

Sequence: TCGTTCCAGC
- switch fluorescence ratio: 1.01

Source: the supplement of paper PMC10126150
